# In all, about 33,000 sequences were measured (“E-score (-0.5 to 0.5)”: median about -0.012, highest 2% from about 0.27 on). This is one part of the list.
# Molecular target: T1, Vhr1 (UniProt P40522)
# T1 sequence: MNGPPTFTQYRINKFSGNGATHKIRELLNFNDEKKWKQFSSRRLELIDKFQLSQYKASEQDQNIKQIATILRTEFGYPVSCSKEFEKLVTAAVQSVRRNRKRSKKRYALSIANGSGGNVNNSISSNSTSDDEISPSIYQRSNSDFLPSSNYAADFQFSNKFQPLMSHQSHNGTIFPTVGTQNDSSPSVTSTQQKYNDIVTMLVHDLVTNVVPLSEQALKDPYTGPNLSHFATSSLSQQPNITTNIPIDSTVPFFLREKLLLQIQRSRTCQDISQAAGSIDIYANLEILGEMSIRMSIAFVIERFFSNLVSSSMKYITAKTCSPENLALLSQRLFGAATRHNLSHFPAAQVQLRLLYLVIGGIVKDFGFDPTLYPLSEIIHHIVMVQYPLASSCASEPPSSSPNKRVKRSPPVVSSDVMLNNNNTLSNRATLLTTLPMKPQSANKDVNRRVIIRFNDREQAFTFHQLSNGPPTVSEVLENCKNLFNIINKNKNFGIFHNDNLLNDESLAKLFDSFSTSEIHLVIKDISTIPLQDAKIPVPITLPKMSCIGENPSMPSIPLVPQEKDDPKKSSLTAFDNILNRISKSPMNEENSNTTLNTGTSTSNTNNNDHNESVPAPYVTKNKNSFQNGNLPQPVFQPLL
# Test: PBM E-score (8-mer binding enrichment) (E-score (-0.5 to 0.5)); higher = stronger / more preferred TF binding; most listed sequences are background and not binding sites
# Conditions: protein concentration: 200 nM; construct: GST-full length
# In short: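 For each ungapped eight-base word taken together with its reverse complement, the Universal PBM Analysis Suite assigned an E-score. Binding data came from GST-tagged yeast transcription factors, applied at about 100-200 nM, on universal all-10-mer Agilent arrays made double-stranded by primer extension. Fluorescent anti-GST marked bound protein, and scans were normalised with masliner.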
row,Sequence,PBM E-score
1,CTCGTATA,0.0512
2,CCACCTCG,-0.085
3,ACTGCCTA,0.139
4,AAAAGTAA,-0.0719
5,CCGAAAGG,-0.0649
6,CACGACGG,0.0606
7,CGATAGCC,-0.132
8,AGGTGAAT,0.175
9,ACATCCAG,0.101
10,AAGGCGCA,0.0562
11,AGAGAAAC,-0.017
12,CCAATGCA,0.0183
13,GTAAACGA,-0.0754
14,AACCGGCC,-0.071
15,GTGACTGA,0.384
16,GCGAGAAA,-0.105
17,TAACGTCA,-0.055
18,CTGGGGCA,-0.115
19,AGAACCCC,-0.107
20,GGGCAATA,-0.0887
21,ATATCAGC,-0.0247
22,CGACTTTA,-0.138
23,TGAATGAA,0.0893
24,AAAGACGG,-0.174
25,AACGTGTA,-0.0949

row,Sequence,PBM E-score
1,GCGGTGTA,0.107
2,CTAGAAAG,-0.216
3,AGATACCT,-0.0877
4,CTAAACTC,-0.264
5,TCATTACA,0.0618
6,ATTACATA,0.124
7,AGATTACT,-0.00398
8,CGGGCAGA,0.171
9,CACTCAAA,-0.0333
10,GAACAACA,0.0642
11,AGAAGACG,0.0127
12,CAGTGCGG,0.0423
13,CTTTCTAC,-0.168
14,CATCAATC,0.164
15,AGTGTGTG,0.222
16,GAGGAACC,-0.126
17,CGCCTTCA,-0.173
18,AACTGGAA,-0.167
19,CCGCTTGC,0.00952
20,AGCTCAGA,-0.0762
21,CAGGTTCC,-0.0388
22,GGTCTTAC,-0.0377
23,ACTTGGCC,-0.126
24,AATATGGA,0.118
25,ATACAGCC,-0.00486

row,Sequence,PBM E-score
1,CACCCCGC,0.0543
2,ACGCACCT,0.0115
3,CTTGTGAC,0.111
4,CCATACCA,-0.0322
5,ATGGACCG,0.00926
6,CATGGTTC,0.364
7,ATTGAGGC,-0.202
8,ACCATCTG,0.148
9,CCTTCCTA,-0.259
10,AGAACGCG,0.107
11,CCAGGAAA,-0.0395
12,CGCGCGAA,0.101
13,CGCTTCTA,0.0541
14,TGCTAGCA,-0.113
15,GCACACTA,0.105
16,CCGCCTTC,0.0298
17,GCGTTTAA,-0.23
18,AAGTGCGA,-0.0776
19,CCCGAAGG,0.0654
20,CCACTGTC,-0.114
21,AGTTAAAG,-0.0442
22,AACACATG,0.192
23,CTCAGCAA,-0.0205
24,CAGGGCTA,-0.13
25,AGTCTATA,0.0436

row,Sequence,PBM E-score
1,AATTAAAG,-0.145
2,ACCGTGGC,-0.115
3,ATGATGAC,0.303
4,AATCAAAG,-0.211
5,AAGCGAAA,-0.188
6,GACGGCGA,-0.00554
7,ACATTCCG,-0.114
8,AACGAAGT,-0.27
9,ACCGTATA,0.0404
10,AGACGGAT,0.0272
11,ATAGAAAA,-0.122
12,AAGCCGCT,-0.187
13,CAGAGGCA,-0.159
14,CGAATTCG,-0.164
15,GAACGCGA,0.255
16,AGAGCAGA,-0.101
17,ATATGTAC,0.161
18,CGCGCACC,0.125
19,CCTGAATA,0.211
20,CACACAGC,0.307
21,AATATTGC,0.0591
22,AATGACGA,-0.0492
23,AGCGCTCA,-0.0485
24,CCTTGTCA,-0.111
25,AAATGTGA,-0.117

row,Sequence,PBM E-score
1,AGATACTG,0.0977
2,ACTCTCAC,0.115
3,CATAATAA,-0.0188
4,AATTGCGT,-0.079
5,GACTACTC,0.31
6,CCGTGCAG,-0.144
7,ATCTTGCA,0.0657
8,CCGGACAC,-0.00587
9,GAAGCACC,-0.156
10,CGTCCAGA,-0.11
11,GCATATCC,0.113
12,ACGTGTAC,-0.0566
13,AGTATAAT,0.163
14,CTCGCCGA,0.118
15,ATCGGATC,-0.0332
16,AGGCGTTA,-0.172
17,CAATCCAA,-0.0655
18,CAAAGATA,0.0272
19,TACTACCA,0.15
20,AGAACAAT,0.0975
21,CGTATAGC,0.113
22,ATTGGGAG,-0.115
23,ACCAAAGA,-0.0588
24,TAGCAATA,-0.0132
25,CACTACTC,0.205

row,Sequence,PBM E-score
1,CCAACACC,-0.0592
2,AAAGTGTG,0.014
3,AAAACTCC,-0.0572
4,GTCGTAAA,-0.104
5,CCAAATGA,0.133
6,GCAGTCAA,0.0401
7,AGCTGGGC,-0.127
8,AGCGGAAT,-0.0549
9,CGAACGCC,-0.298
10,GATCATTA,0.155
11,ACACGGTC,0.0707
12,AGTTACAG,-0.0387
13,CACGATAG,-0.00683
14,AATATTTA,-0.153
15,ATGCACTG,0.0983
16,AAATTCGA,-0.181
17,GGCATTGA,0.0174
18,AGATCGAC,-0.0907
19,TCCACACA,0.0281
20,CTAAAAAG,-0.279
21,CAGTGTCG,0.11
22,GCCAAGGC,-0.017
23,AAGCCCTA,-0.148
24,CTTAACAC,-0.0463
25,CCCTGCAA,-0.148

row,Sequence,PBM E-score
1,ACGGGAGT,0.239
2,CACCTCGC,-0.0515
3,AGTTATTG,0.0204
4,CAAGCGTA,-0.199
5,GTTATCGA,0.149
6,ACTTAAAA,-0.317
7,ATGCGCGC,0.265
8,ACGGTTGC,-0.0413
9,AAGGGGCC,-0.107
10,CTGGCCAA,-0.0386
11,CGGCTATC,-0.124
12,CACATTCC,0.111
13,CCCATAGG,-0.192
14,GTATCAAA,0.0743
15,CCTTGGCA,-0.191
16,ATTCCCGC,0.0182
17,CCCGCTGA,-0.0701
18,CCCTATTC,-0.0746
19,AGGAGCCG,-0.0921
20,AGAGAACA,-0.147
21,ACATAGCC,0.129
22,AACTATTC,-0.0198
